Measurements as given in publication PMC4336329 (PLoS ONE, 2015).
Screen size: about 310,000 compounds; about 14,000 (4.5%) showed an effect of 50% or more. Effects have a minus sign here. This is one part of the list.

Each compound was assayed against human ether-à-go-go-related gene (hERG) potassium channel (human, UniProt Q12809) (assay: primary screen, population patch clamp on CHO cells stably expressing hERG).
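Also: peak tail current of the secondary pulse compared with the same well before compound.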

Sequence of human ether-à-go-go-related gene (hERG) potassium channel (Q12809 whole entry, looked up): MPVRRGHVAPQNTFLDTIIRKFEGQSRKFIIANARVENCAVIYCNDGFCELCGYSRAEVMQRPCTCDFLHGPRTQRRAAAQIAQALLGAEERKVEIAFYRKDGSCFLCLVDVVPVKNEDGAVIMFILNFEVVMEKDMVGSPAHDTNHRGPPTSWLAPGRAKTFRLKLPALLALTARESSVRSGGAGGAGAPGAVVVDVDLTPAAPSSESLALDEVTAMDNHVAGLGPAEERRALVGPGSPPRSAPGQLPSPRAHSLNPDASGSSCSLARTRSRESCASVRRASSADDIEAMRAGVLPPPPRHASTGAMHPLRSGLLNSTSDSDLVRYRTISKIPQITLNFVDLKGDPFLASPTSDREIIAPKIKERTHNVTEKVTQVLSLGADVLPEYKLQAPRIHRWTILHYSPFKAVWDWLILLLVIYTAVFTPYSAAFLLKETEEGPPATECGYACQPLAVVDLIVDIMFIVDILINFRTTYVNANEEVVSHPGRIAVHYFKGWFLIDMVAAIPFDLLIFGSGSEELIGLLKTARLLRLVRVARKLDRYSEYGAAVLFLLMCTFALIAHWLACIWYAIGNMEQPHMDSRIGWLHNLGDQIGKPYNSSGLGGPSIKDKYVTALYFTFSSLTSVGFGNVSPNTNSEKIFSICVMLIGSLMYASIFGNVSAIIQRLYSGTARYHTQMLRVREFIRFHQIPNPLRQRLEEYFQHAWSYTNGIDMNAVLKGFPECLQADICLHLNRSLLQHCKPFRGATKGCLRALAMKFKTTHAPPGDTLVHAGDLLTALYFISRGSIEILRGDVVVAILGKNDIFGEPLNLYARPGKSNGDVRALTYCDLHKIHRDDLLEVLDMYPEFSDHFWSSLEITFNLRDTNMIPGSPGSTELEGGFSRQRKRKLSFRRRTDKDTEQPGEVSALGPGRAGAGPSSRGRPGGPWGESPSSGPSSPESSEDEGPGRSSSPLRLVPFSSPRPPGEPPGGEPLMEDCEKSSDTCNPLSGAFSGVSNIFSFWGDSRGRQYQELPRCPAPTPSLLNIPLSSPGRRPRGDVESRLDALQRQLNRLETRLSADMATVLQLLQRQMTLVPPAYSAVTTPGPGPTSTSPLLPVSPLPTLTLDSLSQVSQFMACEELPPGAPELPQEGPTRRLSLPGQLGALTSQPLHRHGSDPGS

In order of falling “hERG current change (%, negative = inhibition) at 10uM” value:
1. CCCC(=O)C1C(=O)NC(=O)NC1=O  27.6%
2. C[n+]1c(/C=C/c2ccc3c(c2)OCO3)ccc2ccccc21.[I-]  25.7%
3. C=CCn1c(C(C)C)nc2ccccc21.Cl  25.1%
4. O=C(NCCc1ccccc1)c1ccccc1F  24.5%
5. O=C(O)c1cc(-n2nnnc2SCc2ccccc2F)ccc1Cl  22.2%
6. C[C@H]1CCC[C@@]2(O[C@H](CCO)C[C@@H](O)[C@@H]2O)O1  22.1%
7. c1ccc(CCCN2CCOCC2)cc1  22.1%
8. O=C(NC(=S)N1CCCC1)c1ccc(Cl)cc1Cl  20%
9. CCO[C@H]1OC(C(=O)N2CCOCC2)=C[C@@H](C2CC2)[C@@H]1CCCO  19.9%
10. COc1ccccc1NC(=O)CN1C(=O)COc2ccc(S(=O)(=O)N3CCCCCC3)cc21  18.9%
11. CCCCCOc1ccc(NC(=O)CSc2cccc3cccnc23)cc1  18.8%
12. Cc1nnsc1C(=O)Nc1ccc(S(=O)(=O)N2CCCC(C)C2)cc1 (stereo not shown)  18.6%
13. CCN(CC)c1ccc(/C=N/OCC(=O)N2CCCc3ccccc32)cc1  18%
14. Cc1ccc(-n2c(C)cc(/C=C3/C(=O)NC(=O)N(Cc4ccco4)C3=O)c2C)cc1  17.5%
15. CCOC(=O)c1c(C)nn(-c2ccc(NC(=O)c3c(C)noc3C)cc2)c1C  16.9%
16. O=C(COc1ccc2ccc(=O)oc2c1)c1ccccc1  15.6%
17. COCC(=O)N1CCC(Oc2ccc(C(=O)N(C)C(C)c3ccon3)cc2)CC1 (stereo not shown)  14.6%
18. COc1ccc(S(=O)(=O)N2CCOCC2)cc1NC(=O)CN1C(=O)NC(C)(C2CC2)C1=O (stereo not shown)  14.5%
19. COc1cc(NC(=O)COc2cccc(C)c2C)ccc1NC(=O)c1ccco1  13%
20. c1ccc(N2CCN(c3ncnc4sc5c(c34)CCC5)CC2)cc1  12.4%
21. CC(=O)OC1C([N+]2(C)CCCCC2)C[C@H]2C3CC[C@H]4C[C@H](OC(C)=O)C([N+]5(C)CCCCC5)CC4(C)[C@H]3CCC12C.[Br-] (stereo partly shown)  12.1%
22. Cc1ccc(Nc2nc(C)nc3c2oc2ccccc23)cc1  10.7%
23. COc1ccccc1C(=O)Oc1ccccc1C(=O)Nc1ccccc1  9.75%
24. Cc1cc(-c2ccccc2)nc(Oc2ccc(C(C)(C)C)cc2)c1S(C)(=O)=O  9.4%
25. Cc1cc(C)nc(N/N=C/c2cn[nH]c2-c2ccc(F)cc2)n1  8.66%
26. CCn1c(SCC(=O)Nc2ccc3c(c2)OCCO3)nnc1C(C)C  8.55%
27. COc1ccc(C(=O)Nc2ccccc2C(=O)O)cc1NC(=O)C(c1ccccc1)c1ccccc1  8.41%
28. CCCCCN(C(=O)CCC(=O)OCc1cccc(Cl)c1)c1c(N)n(CCCC)c(=O)[nH]c1=O  8.16%
29. COc1cccc(C(=O)Cn2c(N3CCOCC3)nc3c2c(=O)n(C)c(=O)n3C)c1  7.88%
30. NS(=O)(=O)c1ccc(CCN2C(=O)/C(=C\c3ccc(Cl)cc3)SC2=S)cc1  7.74%
31. O=C(NCc1nnnn1-c1ccc(F)c(F)c1)c1ccc2c(c1)OCO2  7.43%
32. C=C1SC(Nc2c(C)cc(C)cc2C)=NC12CCCCC2  6.2%
33. COc1cccc(NC2=NCCCS2)c1  5.9%
34. O=C1CCC/C(=N/NC(=O)c2sc3ccccc3c2Cl)C1  5.82%
35. CCOc1ccc(OCC)c(NC(=O)CN2CCN(c3cccc(C)c3)C(C)C2)c1.Cl (stereo not shown)  5.61%
36. COc1ccc(NCc2cc(=O)[nH]c3ccccc23)cc1  5.37%
37. COc1cc(SC)ccc1C(=O)Nc1ccc(C)cc1C  5.2%
38. COc1cc(/C=C/C(=O)OCC(=O)NC2CCS(=O)(=O)C2)ccc1O (stereo not shown)  4.99%
39. CCCc1[nH]nc2c1C(c1ccc(OC(=O)N3CCOCC3)cc1)C(C#N)=C(N)O2 (stereo not shown)  4.04%
40. O=c1oc2ccccc2c(Nc2cc3ccccc3cc2O)c1[N+](=O)[O-]  3.95%
41. Cc1ccc(N2C(=O)N(CC(=O)Nc3ccc(C)cc3[N+](=O)[O-])C(=O)C2C)cc1 (stereo not shown)  3.52%
42. O=C(NCCc1ccc(Cl)cc1)c1cnccn1  3.46%
43. Cc1cc(C)n2ncc(C(=O)NCc3cccnc3)c2n1  3.31%
44. COC(=O)c1ccccc1NC(=O)c1ccc(COc2cc(C)cc(C)c2)o1  1.12%
45. Cc1nc2ccccc2c(=O)n1CCc1ccccc1  1.1%
46. COc1ccc(C2=NOC(CNC(=S)N3CCOCC3)C2)cc1 (stereo not shown)  1.08%
47. CCOc1ccc2nc(NC(=O)Cc3cccs3)sc2c1  0.978%
48. CCN(NC(=O)C(O)(c1ccccc1)c1ccccc1)C(=O)c1ccccc1  0.711%
49. COc1ccc(NC(=O)C/C(C)=N/NC(=O)C(=O)Nc2cccc(Cl)c2C)c(OC)c1  0.705%
50. C=CCN1C(=O)c2ccc(C(=O)N3CCN(c4ccccc4OC)CC3)cc2C1=O  0.00618%
51. Cc1cc(N/N=C/c2ccccc2Cl)nc(NCc2ccccc2)n1  -0.242%
52. COc1ccc(S(=O)(=O)N2CCCCC2)cc1NC(=S)Nc1cccc(Cl)c1C  -0.424%
53. FCCCOc1ccc(-c2nccc(-c3ccc(F)cc3)n2)cc1  -1.06%
54. Cc1cc(OCC(=O)Nc2cc(S(=O)(=O)N3CCOCC3)ccc2N2CCCC2)ccc1C(C)C  -1.3%
55. COc1ccc(OCCC(=O)NC2=NCCS2)cc1  -1.4%
56. COc1ccc(NC(C)=O)cc1S(=O)(=O)NCCc1ccccn1  -2.22%
57. Cc1noc(C)c1COc1cccc(C(=O)OCC(=O)NCCN2C(=O)CSC2=O)c1  -3.17%
58. CC1CCN(S(=O)(=O)c2ccccc2)CC1  -3.32%
59. CC(C)Oc1ccc(C2(C#N)CC[N+](C)(C)CC2)cc1.[Br-]  -3.81%
60. CC(C)CCn1c(N)c(S(=O)(=O)c2cccs2)c2nc3ccccc3nc21  -5.06%
61. CC(=O)/C(N=Nc1ccc(C(=O)O)cc1)=C(\C)O  -5.56%
62. CC(C)C1Cc2c(C#N)c(N)sc(=S)c2CO1 (stereo not shown)  -6.09%
63. Clc1ccccc1CSc1ncccn1  -6.09%
64. CC(C)CCc1noc(CN2CCC(C(=O)N3CCOCC3)CC2)n1  -6.13%
65. O=C(N1CCCCCC1)N1CCN(C(=O)N2CCOCC2)CC1  -6.82%
66. Cc1ccc2nsnc2c1S(=O)(=O)Nc1ccccc1C(=O)O  -7.06%
67. COc1ccc2c(c1)c(CC(=O)OCC(=O)O)c(C)n2C(=O)c1ccc(Cl)cc1  -7.76%
68. Clc1cccc2c1CCN(Cc1nc(-c3cnccn3)no1)C2  -8.25%
69. Oc1c(Cl)cc(Cl)cc1C(C#Cc1ccccc1)N1CCOCC1 (stereo not shown)  -8.47%
70. CC(=O)c1cc(-c2ccc(F)cc2)n(CCC(=O)NC(C)(C)C)c1C  -9.87%
71. NC1=NC[C@@H](Cc2ccc(O)cc2)N1CCC12CC3CC(CC(C3)C1)C2  -9.99%
72. Cc1ccc(-n2ncc3c2ncn2c(C)nnc32)cc1C  -10.5%
73. CCOC(=O)N1CCC(NC(=O)c2cc(S(=O)(=O)N3CCOCC3)ccc2F)CC1  -10.6%
74. CCC(NC(=O)N(Cc1ccccc1)Cc1ccc2c(c1)OCO2)(C(F)(F)F)C(F)(F)F  -11%
75. CCCCCCn1c(-c2cccs2)n[nH]c1=S  -12.1%
76. O=C(CCSCc1cccc(Cl)c1)NCCC1=CCCCC1  -13%
77. COc1ccc(CNS(=O)(=O)NCc2ccc(C)cc2)cc1OC  -13.8%
78. CCCOc1ccc(NC(=O)OC2CCN(C)CC2)cc1.O=C(O)/C=C/C(=O)O  -17.8%
79. CCOc1ccc(N(CC(=O)NCCOc2ccccc2OC)S(=O)(=O)c2ccccc2)cc1  -21.2%
80. CC(OC(=O)Cc1c(F)cccc1Cl)C(=O)NC1(C#N)CCCCC1 (stereo not shown)  -22.4%
81. Cc1ccc(C)c(NS(=O)(=O)c2cc(C(=O)N3CCCC3)ccc2Cl)c1  -22.4%
82. CC1(C)Cc2cccc(OCC(O)CNCc3ccccn3)c2O1.Cl (stereo not shown)  -25.1%
83. O=C(CN1CCN(c2ccc(Cl)cc2[N+](=O)[O-])CC1)N1CCOCC1  -33.6%
84. CN(Cc1ccc(Cl)s1)C(=O)CCl  -35%
85. COc1ccccc1-c1cc(C(=O)NC2CCN(C)CC2)c2ccc(Cl)c(C)c2n1  -42%
86. O=C(N/N=C/c1ccncc1)c1ccc(COc2cccc3cccnc23)cc1  -45.6%
87. NNC(=O)CN1C(c2ccc(Cl)cc2)=Nc2ccc(Br)cc2C1c1ccccc1 (stereo not shown)  -53.3%
88. COc1ccc(N2CCN(CC(O)COc3ccc(F)cc3)CC2)cc1.Cl (stereo not shown)  -69.9%
